According to article PMC12977500, “Mechanistic insights into SteAB regulation of cell wall hydrolase RipA in Mycobacterium tuberculosis” (mBio, 2026):

Biological target: the molecule itself
Experiment: crystal structure; apo MtSteB△TM, 11.4 mg/mL; 0.1 M CdCl2, 0.1 M Na acetate pH 4.6, 30% PEG 400; 18°C; 2 Å resolution

B1: MtSteB△TM (soluble M. tuberculosis SteB devoid of its TM domain, residues 38–314) (domain or fragment)
chain: RSEKRDLYTQIDRLTDQRDALREKLSAADNFDIQVGSRIVHDALVGKSVVIFRTPDAHDDDIAAVSKIVGQAGGAVTATVSLTQEFVEANSAEKLRSVVNSSILPAGSQLSTKLVDQGSQAGDLLGIALLSNADPAAPTVEQAQRDTVLAALRETGFITYQPRDRIGTANATVVVTGGALSTDAGNQGVSVARFAAALAPRGSGTLLAGRDGSANRPAAVAVTRADADMAAEISTVDDIDAEPGRITVILALHDLINGGHVGHYGTGHGAMSVTVSQ
notes: Homodimer in both crystal structures; also called MctB; Rv1698; not shown: His6, N-terminal, cleaved; SUMO, N-terminal, cleaved
stoichiometry N: 2
